We go through 153 variants from a collection of fitness landscapes (doi:10.1016/j.celrep.2020.107928).

Sequences and labels used below:
B1: Caulobacter ParB omega fusion; a variant is named by its letters at X, in order, B8GW30 (parent)
chain: MESVVVGEPGMSEGRRGLGRGLSALLGEVDAAPAQAPGEQLGGSREAPIEILQRNPDQPRRTFREEDLEDLSNSIREKGVLQPILVRPSPDTAGEYQIVAGERAWRAAQRAGLKTVPIMVRELDDLAVLEIGIIENVQRADLNVLEEALSYKVLMEKFERTQENIAQTIGKSXSHVANXMRLLXLPDEVQSYLVSGELTAXHARAIAAAADPVALAKQIIEGGLSVRETEALARKAPNLSAGKSKGGRPPRVKDTDTQALESDLSSVLGLDVSIDHRGSTGTLTITYATLEQLDDLCNRLTRGI

Whole data set: some 81,000 sequences, median “one-hybrid fitness for binding parS DNA” near -0.17, cut for the highest 2% near 0.51. The list shows a part of the results. A value given as a limit tells only on which side of the number the result lay.

This assay covers variants of B1. Kind of assay: one-hybrid fitness for binding parS DNA (scaled: cognate 1, non-cognate 0); higher = stronger binding. The following applies: with parS DNA site. Summed up:
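On M9-minus-histidine containing 0.1 mM IPTG and 5 mM 3-AT, E. coli USO cells with a HIS3 reporter, site 19 bp from the promoter, grew 48 hours at 37°C to select Caulobacter ParB libraries randomised at four specificity codons. Plasmids from before and after were Illumina-sequenced, with three replicate libraries pooled and variants under 10 reads left out. Fitness is the log change in variant-to-wild-type read ratio, rescaled against cognate and non-cognate.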
STDE: the “one-hybrid fitness for binding parS DNA” value was no more than 0.2.
Then TCSG, with no more than 0.2; and FSCS, with no more than 0.2; and QFTS, with no more than 0.2.
Then LGKN, with no more than 0.2; and HPHS, with no more than 0.2; and DMQL, with no more than 0.2.
The result for KCHW reads no more than 0.2; that for DTLF, no more than 0.2; that for HFTG, no more than 0.2.
With KCGG, the “one-hybrid fitness for binding parS DNA” value is no more than 0.2.
On to GYMC, for which the “one-hybrid fitness for binding parS DNA” value is no more than 0.2.
Turning to VVSY, the “one-hybrid fitness for binding parS DNA” value was no more than 0.2.
Then GKQW, with no more than 0.2; and DLTT, with no more than 0.2.
The result for IGGM reads 0.272; that for CSSC, no more than 0.2; that for QENL, no more than 0.2.
As for IVFR, the “one-hybrid fitness for binding parS DNA” value was no more than 0.2.
Then HPPG, with no more than 0.2.
In the case of STAM, the “one-hybrid fitness for binding parS DNA” value was no more than 0.2.
Then AFER, with no more than 0.2; and FSIG, with no more than 0.2.
The result for VLLL reads no more than 0.2; that for LKAY, no more than 0.2; that for PAYA, no more than 0.2.
Then QKRP, with no more than 0.2.
As for AWPN, the “one-hybrid fitness for binding parS DNA” value is no more than 0.2.
Turning to ASLA, the “one-hybrid fitness for binding parS DNA” value was no more than 0.2.
The result for SFDY reads no more than 0.2; that for FDAR, no more than 0.2.
Then DSGT, with no more than 0.2; and SLPN, with no more than 0.2.
Regarding KQFT, the “one-hybrid fitness for binding parS DNA” value was no more than 0.2.
For RDCF, the “one-hybrid fitness for binding parS DNA” value is no more than 0.2.
Then CNSL, with no more than 0.2.
On to FGRG, for which the “one-hybrid fitness for binding parS DNA” value is no more than 0.2.
With SDAR, the “one-hybrid fitness for binding parS DNA” value is no more than 0.2.
The result for LNGN reads no more than 0.2; that for SMAL, no more than 0.2.
The result for QNNW reads no more than 0.2; that for SPYH, no more than 0.2.
On to VSPK, for which the “one-hybrid fitness for binding parS DNA” value was no more than 0.2.
Then DMAC, with no more than 0.2; and RDSE, with no more than 0.2.
Take VGDC: the “one-hybrid fitness for binding parS DNA” value was no more than 0.2.
Then DLND, with no more than 0.2; and HLGG, with no more than 0.2.
Then LVSW, with no more than 0.2.
The result for ANDP reads no more than 0.2; that for NVSG, no more than 0.2.
In the case of GPLN, the “one-hybrid fitness for binding parS DNA” value was no more than 0.2.
Then KMGG, with no more than 0.2; and ANNK, with no more than 0.2; and ASSR, with no more than 0.2.
On to RCLW, for which the “one-hybrid fitness for binding parS DNA” value worked out at 0.285.
Then YDYS, with no more than 0.2.
Then NSYW, with no more than 0.2; and NQHH, with no more than 0.2; and RHFY, with 0.377.
Then GPRT, with no more than 0.2.
Take AERH: the “one-hybrid fitness for binding parS DNA” value is no more than 0.2.
The result for IDYG reads no more than 0.2.
With SGKL, the “one-hybrid fitness for binding parS DNA” value was no more than 0.2.
Then DPEY, with no more than 0.2; and VNHC, with no more than 0.2; and LPYE, with no more than 0.2.
Then VITV, with no more than 0.2; and KVIC, with no more than 0.2.
The result for YGGG reads no more than 0.2.
Take VSAG: the “one-hybrid fitness for binding parS DNA” value was no more than 0.2.
Turning to FLGP, the “one-hybrid fitness for binding parS DNA” value was no more than 0.2.
Then RYVN, with 0.364; and HSMK, with no more than 0.2.
The result for LTCL reads no more than 0.2.
Then LCIK, with no more than 0.2; and KLQL, with no more than 0.2.
Regarding VSVC, the “one-hybrid fitness for binding parS DNA” value is no more than 0.2.
For QSLM, the “one-hybrid fitness for binding parS DNA” value was no more than 0.2.
Then VSFA, with no more than 0.2; and RHGD, with no more than 0.2.
Then RAQN, with 0.436; and ESYV, with no more than 0.2; and VPVM, with no more than 0.2.
Then QGSC, with no more than 0.2; and GVYT, with no more than 0.2.
For the variant ALMN, the “one-hybrid fitness for binding parS DNA” value was no more than 0.2.
Then QNSV, with no more than 0.2.
The result for VESC reads no more than 0.2; that for ITVA, no more than 0.2.
As for RVQH, the “one-hybrid fitness for binding parS DNA” value is 0.223.
For QHGF, the “one-hybrid fitness for binding parS DNA” value was no more than 0.2.
The result for VFPL reads no more than 0.2.
The result for QMKF reads no more than 0.2.
Then SPKH, with no more than 0.2.
Consider GPPM, for which the “one-hybrid fitness for binding parS DNA” value is no more than 0.2.
On to QMLH, for which the “one-hybrid fitness for binding parS DNA” value is no more than 0.2.
The result for QYTA reads no more than 0.2; that for SPVD, no more than 0.2.
As for LQGK, the “one-hybrid fitness for binding parS DNA” value was no more than 0.2.
The result for PVCY reads no more than 0.2; that for TYYR, no more than 0.2.
The result for IIIV reads no more than 0.2.
On to GSPQ, for which the “one-hybrid fitness for binding parS DNA” value is no more than 0.2.
The result for WTKS reads no more than 0.2; that for LYSF, no more than 0.2; that for MGRM, no more than 0.2.
The result for EHHG reads no more than 0.2; that for DTSN, no more than 0.2.
The result for LLRD reads no more than 0.2; that for VWMT, no more than 0.2.
Consider CTTA, for which the “one-hybrid fitness for binding parS DNA” value was no more than 0.2.
Regarding GDNM, the “one-hybrid fitness for binding parS DNA” value is no more than 0.2.
The result for ERQC reads no more than 0.2; that for MSKR, no more than 0.2; that for ISAT, no more than 0.2.
Then FGLT, with no more than 0.2.
Then KTFS, with no more than 0.2; and RQIR, with no more than 0.2; and NQLD, with no more than 0.2.
Turning to SYIT, the “one-hybrid fitness for binding parS DNA” value was no more than 0.2.
Then IHSW, with no more than 0.2; and RHME, with no more than 0.2; and QCDF, with no more than 0.2.
The result for SKNY reads no more than 0.2; that for KRSK, no more than 0.2; that for CRVW, no more than 0.2.
Turning to LGAM, the “one-hybrid fitness for binding parS DNA” value is no more than 0.2.
The result for MERY reads no more than 0.2.
The result for SANS reads no more than 0.2.
The result for KCLA reads no more than 0.2; that for RCRT, 0.818.
Turning to HPDS, the “one-hybrid fitness for binding parS DNA” value is no more than 0.2.
Then RLAK, with no more than 0.2; and RINT, with 0.914.
As for VYVE, the “one-hybrid fitness for binding parS DNA” value was no more than 0.2.
Then QETN, with no more than 0.2.
The result for MHSH reads no more than 0.2; that for RTFP, no more than 0.2.
Then RIAE, with no more than 0.2; and QCLV, with no more than 0.2.
As to SCIV, the “one-hybrid fitness for binding parS DNA” value was no more than 0.2.
The result for IPSW reads no more than 0.2; that for QRRK, no more than 0.2.
In the case of HFDG, the “one-hybrid fitness for binding parS DNA” value is no more than 0.2.
As to FFAM, the “one-hybrid fitness for binding parS DNA” value is no more than 0.2.
Then TKMF, with no more than 0.2; and PIKT, with no more than 0.2; and GGWY, with no more than 0.2.
Then RALP, with no more than 0.2; and QCAS, with no more than 0.2; and PTYN, with no more than 0.2.
As for LRYK, the “one-hybrid fitness for binding parS DNA” value was no more than 0.2.
